# In PubChem BioAssay AID2546 (National Center for Advancing Translational Sciences (NCATS), 2010):
# About 11,000 (3.5%) of roughly 310,000 compounds were called active. The inconclusive results got no clear call from the source; some entries with a clear call stand among them for comparison. Calls come from the whole dose curve; as a rule, active = well fitted inhibition curve with a large enough effect; inconclusive = small, poorly fitted or top-dose-only effect, or effect the other way; inactive = flat fitted curve, though single readings scatter. No potency is given beside an inconclusive call; the fits are too rough.
# Assay: VP16 counterscreen qHTS for inhibitors of ROR gamma transcriptional activity;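 note: Gal4-VP16 expression switched on by copper sulfate through the metallothionein promoter; nearly all actives have a fitted effect of over 50% in size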
# Conditions: Drosophila S2 Gal4-VP16 UAS-luciferase, luminescence, 20 h; activity, negative = inhibition: at 53.6 µM (top of the series)
# % is set by controls: 0 for no effect and ±100 for the full control effect; potency is the fitted concentration of half-maximal effect; tags give direction and shape of the fitted curve.
Structure (SMILES),"activity, negative = inhibition",Potency
CCn1c(/C=C2\C(=O)N(C(C)C)c3ccccc32)nc2ccccc2c1=O,inactive: -2.94%,–
FC(F)(F)c1cccc(-n2c(Cn3nnc4ccccc43)n[nH]c2=S)c1,–,"inconclusive [inhibitor, single point]"
CCOC(=O)CNC(=O)c1sc(NC(=O)c2ccccc2F)nc1C,–,active: 2.51 µM
CCOc1cc(/C=N/O)ccc1OS(=O)(=O)c1ccc(C)cc1,–,"inconclusive [inhibitor, partial curve]"
CC1(C)C2CC=C(/C=N/NC(=O)c3ccc(Cl)cc3)C1C2 (stereo not given),–,"inconclusive [inhibitor, single point]"
C#CCOC(=O)Nc1cnccc1C(F)(F)F,inactive: 0.281%,–
CCOC(=O)c1csc(Nc2nc3ccc(F)cc3s2)n1,–,"inconclusive [inhibitor, single point]"
COc1cc(/C=C(\C#N)C(=O)NC2CCCCC2C)ccc1OS(=O)(=O)c1ccc(C)cc1 (stereo not given),–,active: 11.2 µM
CCCCCC(=O)N/N=C/c1ccc(N(C)C)cc1,–,"inconclusive [activator, single point]"
CCc1cc(Br)ccc1N1C(=O)C2CC=CCC2C1=O (stereo not given),–,"inconclusive [inhibitor, partial curve, poor fit]"
CC(C)OCCCn1c(=S)[nH]c2cc3c(cc2c1=O)OCO3,–,active: 6.31 µM
COc1ccc(OC)c(/C=C2\S/C(=N/NC(=O)c3ccc4ccccc4c3)NC2=O)c1,–,"inconclusive [inhibitor, partial curve]"
CCc1ccc(NC(=O)CSCCN2C(=O)c3ccccc3C2=O)cc1,–,"inconclusive [activator, single point]"
CCOC(=O)C1(Cc2ccccc2)CCCN(CCO)C1 (stereo not given),inactive: -3.76%,–
O=C1C(NS(=O)(=O)c2ccc(Br)cc2)=C(N2CCCCC2)C(=O)c2ccccc21,–,"inconclusive [inhibitor, single point]"
[S-]C(=Nc1ccc(Cl)cc1)N[n+]1ccccc1,–,"inconclusive [inhibitor, single point]"
CCCOP(=O)(c1ccc(N(C)C)cc1)C(Nc1ccccc1)c1ccc(C)cc1 (stereo not given),–,"inconclusive [inhibitor, single point]"
COc1ccc2[nH]cc(CCNC(=O)COc3ccc4ccc(=O)oc4c3)c2c1,inactive: -2.93%,–
COc1cccc(N2CC(O)=C(c3nc4ccccc4c(=O)[nH]3)C2=N)c1,–,"inconclusive [inhibitor, single point]"
CCCCCCCCCc1nc2sc3c(c2c(=O)n1NC(=O)c1ccc([N+](=O)[O-])cc1)CC(C)(C)OC3,–,"inconclusive [inhibitor, single point]"
